# Measured values: PMC4336329 (PLoS ONE, 2015)
# About 2,200 (0.71%) of roughly 310,000 compounds showed an effect of 50% or more. The effect is printed as a negative number. The list shows a part of the results.
# Target: human ether-à-go-go-related gene (hERG) potassium channel (human, UniProt Q12809)
# Test: primary screen, population patch clamp on CHO cells stably expressing hERG
# Chain of human ether-à-go-go-related gene (hERG) potassium channel (Q12809 whole entry, looked up): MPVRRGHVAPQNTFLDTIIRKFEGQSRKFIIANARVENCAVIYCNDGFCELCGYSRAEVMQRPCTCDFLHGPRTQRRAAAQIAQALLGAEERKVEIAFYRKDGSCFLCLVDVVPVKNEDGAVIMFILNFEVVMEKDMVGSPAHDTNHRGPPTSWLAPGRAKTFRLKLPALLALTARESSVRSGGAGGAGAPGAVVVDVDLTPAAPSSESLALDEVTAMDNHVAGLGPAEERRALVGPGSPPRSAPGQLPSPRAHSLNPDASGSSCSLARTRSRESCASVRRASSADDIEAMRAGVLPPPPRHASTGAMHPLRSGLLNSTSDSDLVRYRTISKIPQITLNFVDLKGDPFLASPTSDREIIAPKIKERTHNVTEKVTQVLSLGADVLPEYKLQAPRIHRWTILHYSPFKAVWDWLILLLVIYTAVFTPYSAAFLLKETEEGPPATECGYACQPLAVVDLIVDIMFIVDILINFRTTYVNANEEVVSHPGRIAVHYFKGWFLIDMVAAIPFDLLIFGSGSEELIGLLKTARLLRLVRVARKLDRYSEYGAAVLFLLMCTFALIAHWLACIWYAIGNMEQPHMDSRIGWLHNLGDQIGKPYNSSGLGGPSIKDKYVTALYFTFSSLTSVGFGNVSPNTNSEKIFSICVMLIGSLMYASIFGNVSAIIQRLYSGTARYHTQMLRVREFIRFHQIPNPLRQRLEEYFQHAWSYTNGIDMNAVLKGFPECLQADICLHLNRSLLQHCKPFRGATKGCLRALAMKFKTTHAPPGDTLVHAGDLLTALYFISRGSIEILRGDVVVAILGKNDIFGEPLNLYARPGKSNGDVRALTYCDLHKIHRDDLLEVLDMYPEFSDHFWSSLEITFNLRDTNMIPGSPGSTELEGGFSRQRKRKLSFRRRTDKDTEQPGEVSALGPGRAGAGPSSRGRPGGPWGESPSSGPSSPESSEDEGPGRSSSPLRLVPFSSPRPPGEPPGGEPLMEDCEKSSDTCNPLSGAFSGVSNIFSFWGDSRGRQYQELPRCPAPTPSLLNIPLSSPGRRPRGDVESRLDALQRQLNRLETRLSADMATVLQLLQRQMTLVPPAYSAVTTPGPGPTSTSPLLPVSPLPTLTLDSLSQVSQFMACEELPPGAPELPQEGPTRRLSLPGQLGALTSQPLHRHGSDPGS
row,SMILES,"hERG current change (%, negative = inhibition) at 1uM [%]"
1,CCOC(=O)c1c(C)n(CCNC(C)=O)c2ccc(OC)cc12,5.97
2,O=S(=O)(NCCc1ccccc1)c1ccc(-n2cnnn2)cc1,-20.6
3,O=C(Cc1ccc(F)cc1)Nc1c2c(nn1-c1cccc(Cl)c1)CS(=O)C2 (stereo not drawn),5.51
4,C[C@H](NC(=O)c1ccccc1Cl)C(=O)OCC(=O)N1CC2(C)CC1CC(C)(C)C2 (stereo partly drawn),0.641
5,CCO.CCOc1ccc(Cl)cc1C(c1c(C)[nH][nH]c1=O)c1c(C)[nH][nH]c1=O,12.3
6,COc1ccccc1C(=O)NCC(=O)OCC(=O)Nc1cccc(S(=O)(=O)N(C)C)c1,19
7,Cc1ccc(N=Cc2c(O)c3ccccc3oc2=O)c(C)c1,14.5
8,CON(C)c1nc(C2CCCCC2)c2cc(C)ccc2n1,15.1
9,COc1ccc2[nH]cc(CCNC(=O)COc3ccc4ccc(=O)oc4c3)c2c1,3.38
10,Cc1nc2ccc(NC(=O)c3cccs3)cc2c(=O)n1Cc1ccc(Cl)cc1,13.6
11,COCCNS(=O)(=O)c1ccc2c(c1)C(=O)c1cc(S(=O)(=O)NCCOC)ccc1-2,8.67
12,Cc1c(OC(C)C(=O)NCCN2CCOCC2)ccc2c3c(c(=O)oc12)CCC3 (stereo not drawn),12.4
13,COC(=O)COc1cccc2c(=O)n(CC(=O)N3CCCc4ccccc43)ccc12,19.7
14,COc1cc(/C=N/NC(=O)COc2c(C)cc([N+](=O)[O-])cc2C)ccc1OC(=O)c1ccccc1Br,30.8
15,O=c1cccc2n1CC1CC2CN(S(=O)(=O)c2cc(Cl)ccc2Cl)C1 (stereo not drawn),-5.73
16,CCN(C(=O)Nc1ccccc1)c1ccccc1,11.3
17,CCN(CC)C(=O)c1ccccc1NS(=O)(=O)c1ccc(C)cc1,1.57
18,CCOc1cc(N2CCOCC2)c(OCC)cc1NC(=O)CN1C(=O)NC2(CCCCCCC2)C1=O,-26.8
19,N#CCCN1CCN(C(=S)c2ccc(-c3ccc(Cl)c(Cl)c3)o2)CC1,1.5
20,CN(c1ccc(C(=O)N2CCOCC2)cc1[N+](=O)[O-])C1CCCCC1,-12.6
21,O=C(CCc1nnc(CCCCc2ccccc2)o1)NCc1cccc(F)c1,9.39
22,COc1ccc(C(=O)CSc2nn3c(=O)c(C(C)(C)C)nnc3s2)cc1,14.2
23,COc1ccccc1C(=O)NCC(=O)N/N=C(\C)Cc1ccccc1,15.3
24,COc1cc(OC)cc(-c2nc3ccccc3c(=O)o2)c1,7.52
25,CC(C)c1ccc(N(CCc2ccccn2)C(=O)C(C)(C)C)cc1,11.9
26,CCOC(=O)C(NC(=O)NCc1ccccc1)(OCC)C(F)(F)F (stereo not drawn),10.6
27,[O-][N+]1=c2ccc(Nc3ccccc3)cc2=NC12CCCCC2,-15.6

row,SMILES,"hERG current change (%, negative = inhibition) at 1uM [%]"
1,CCCc1nnc(NC(=O)CN2C(=O)C3C4C=CC(C4)C3C2=O)s1 (stereo not drawn),-2.18
2,CC(C)C(=O)Nc1nnc(-c2ccco2)s1,12.2
3,Cc1cc(NC(=O)CCC(=O)N(CC(=O)NC2CCCC2)c2cccc(C)c2C)no1,10.7
4,CCOC(=O)c1ccc(NC(=O)C(CC)(CC)C(=O)OCC)cc1,-0.122
5,COc1cccc(N(C(=O)c2ccco2)C(C(=O)NC2CCCC2)c2cccnc2)c1 (stereo not drawn),-10.3
6,Cc1onc(-c2ccc(Cl)cc2)c1-c1ccnc(SCC(=O)Nc2ccc(C(C)C)cc2)n1,7.01
7,COc1cc2c(cc1O)[C@H](Cc1ccc(Oc3cc(C[C@@H]4NCCc5cc(OC)c(O)cc54)ccc3O)cc1)NCC2,3.27
8,COc1ccc(CC(=O)NNC(=O)[C@@H]2CCCC[C@@H]2C(=O)O)cc1,0.68
9,Cc1cc(NC(=O)CC(F)(F)F)n(-c2ccccc2)n1,6.48
10,ON1C2CCCCC2N(O)C1c1ccccc1F (stereo not drawn),16.7
11,COc1cccc(C2N(Cc3ccccc3)C(=O)C2(F)F)c1OC (stereo not drawn),-6.92
12,CCN(CC)C(=O)CC(c1ccc2c(c1)OCO2)c1c(OC)cc(OC)c2c(-c3ccccc3)cc(=O)oc12 (stereo not drawn),9.25
13,C=CCc1c(C)nc(C)nc1N/N=C/c1ccccc1O,-12.5
14,Cc1cccc(N2CCN(C(=O)C3CCCN(S(=O)(=O)c4c(C)noc4C)C3)CC2)c1C (stereo not drawn),5.34
15,N#CC1=C(N)OC2=C(C(=O)CCC2)C1C1CC=CCC1 (stereo not drawn),4.21
16,O=c1c2ccccc2nc2c3ccccc3c(NCc3ccco3)nn12,1.44
17,CCOC(=O)c1cccc(NC(=O)CSc2nnc(COc3ccccc3)n2CC)c1,-3.48
18,Cc1cc(C)cc(-n2nnnc2SCC(=O)Nc2nc(-c3ccc(Cl)cc3)cs2)c1,18.6
19,Cc1ccc(N2C(=O)CSC2c2cccs2)cc1 (stereo not drawn),-0.318
20,COc1ccc(CN(CC2CCCO2)C(=O)c2cc3sccc3n2C)c(OC)c1 (stereo not drawn),4.44
21,CC(OC(=O)c1cc(Cl)ccc1[N+](=O)[O-])C(=O)NC(C)c1ccc(F)cc1 (stereo not drawn),10.5
22,CC1(C)C(=O)Nc2ccccc2N1C(=O)COc1ccc(S(=O)(=O)N2CCOCC2)cc1Cl,15.4
23,COc1ccc(CN2CCCC(N3CCc4ccccc4C3)C2)c(O)c1 (stereo not drawn),2.89
24,Cc1ccc(Nc2cc(C)nc3ncnn23)c(Cl)c1,-2.12
25,CC(=O)n1c(-c2ccccc2)c(CO)c2ccccc21,13.5
26,COc1ccc(-c2csc3ncnc(N4CCN(S(=O)(=O)c5ccc(C)cc5)CC4)c23)cc1,5.19
27,O=C(COC(=O)c1cccc(S(=O)(=O)N2CCc3ccccc32)c1)NCc1ccco1,24.9
